Measurements from US12325690B2, “Compounds for the reducing lipotoxic damage” (Mayo Foundation for Medical Education and Research, priority 2017, dated 2025).

How the values were obtained:
pancreatic lysate lipase [1] = target: T1, pancreatic lysate lipase (Mus musculus, UniProt Q6P8U6); test: Lipase activity assay with pancreatic lysate (commercial Pointe scientific lipase assay); assay type: biochemical; settings: solution stored overnight at room temperature
T1 construct: efficacy against mouse pancreatic lysates; other: summary of strengths of 767; efficacy as a solution when left overnight; other: solution left overnight; efficacy in the lipase activity assay compared with orlistat when fresh; other: fresh solution; IC50 of orlistat after overnight incubation (nearest tested concentration); other: after overnight incubation; improvement in stability and e
T1 sequence (Q6P8U6 17-465): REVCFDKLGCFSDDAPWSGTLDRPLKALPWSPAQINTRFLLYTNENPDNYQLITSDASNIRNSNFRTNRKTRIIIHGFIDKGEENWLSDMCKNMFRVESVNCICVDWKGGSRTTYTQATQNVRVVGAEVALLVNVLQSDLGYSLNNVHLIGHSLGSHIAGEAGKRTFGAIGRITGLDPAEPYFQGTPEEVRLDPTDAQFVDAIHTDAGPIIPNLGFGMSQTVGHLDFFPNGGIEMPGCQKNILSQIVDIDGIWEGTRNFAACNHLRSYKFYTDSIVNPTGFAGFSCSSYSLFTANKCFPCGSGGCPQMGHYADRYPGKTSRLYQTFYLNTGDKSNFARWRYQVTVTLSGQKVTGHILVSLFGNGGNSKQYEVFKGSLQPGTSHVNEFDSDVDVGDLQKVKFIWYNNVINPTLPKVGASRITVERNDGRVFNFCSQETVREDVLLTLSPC
Experimental: (§1) To test the efficacy of these compounds, the agents were dissolved as a 20 mM stock in ethanol, and further diluted to in PBS as a 600 micromolar working stock (3.3% ethanol). This was either used immediately or left at room temperature for 16-20 hours overnight before retesting efficacy. The agents were incubated with a pancreatic lysate in serial ⅓ dilutions spanning a range of 200 to 0.3 micromolars for 30 minutes. 5 microliters of these mixtures were then used to measure lipase activity using a commercial lipase assay (Pointe scientific) containing a monoacyl glycerol lipase in the reagent. The lipase assay was done using reagents in proportion to the recommended protocol. Values were depicted as % maximal lipase activity of the well without any inhibitor.

[2] = tested on: acinar cells in acinar-adipocyte co-culture; settings: 66 micromolars
pancreatic lysate lipase [3] = test: Lipase activity assay with pancreatic lysate (commercial Pointe scientific lipase assay); assay type: biochemical, mouse; settings: freshly prepared solutions; compared with parent 741
Experimental: as §1

Structure (SMILES)	improvement in stability and efficacy over orlistat after overnight storage (pancreatic lysate lipase [1])	toxicity to acinar cells [2]	lipase inhibition efficacy of β-chain analogs of 741 (pancreatic lysate lipase [3])	efficacy in reducing lipotoxic damage to acinar cells ([2]; acinar-adipocyte co-culture)
CCCCCCCCCCC[C@@H](C[C@@H]1OC(=O)[C@H]1CCCCCC)OC(=O)[C@H](CC(=O)O)NC=O [Compound 743]	approximately 10 fold	toxic to acinar cells		
CC=CCCC(CC1OC(=O)[C@H]1CCCCCC)OC(=O)[C@H](C)NC=O (some centres unmarked) [Compound 760]			decrease in efficacy	
CCCCCCCCCCC[C@@H](C[C@@H]1OC(=O)[C@H]1CCCCCC)OC(=O)[C@H](COC=O)NC=O [Compound 736]		low toxicities		retained its efficacy
